# Source: article PMC12136788
# This is one part of the list.
# B1: chr3:113720845:113720875:-|3pUTR|ENSG00000121579|msi1_unk|total|mutant (ssRNA)
# RNA: GGGAGUUCUACAGUCCGACGAUCCCUUUUUCUUCAGUAAACCCAACAACCGUCUAACCUUAAAAAUUGAGUUGAUGUCCUUACCGGUCACUACCCCUAAAUAAACCUGAAGCAGGUGUUUUCUCUUGGACAUACUAAAAAAUACAACAGAGGAUUGAGCAUCA
# B2: ENSG00000136451:be:win_2751|3pUTR|ENSG00000136451|bound_else_gene|NA|bound_elsewhere_windowed (ssRNA)
# RNA: GGGAGUUCUACAGUCCGACGAUCCUUUGUGGUGUUUUCAGGGAGACAGCUGUCUGCAUUCCCUGUAGAAACCCAGCAAUGAUUAUGCACGUUGAGACAUGUGCUUUUUAUUUCUUAGCAAGAUAUUUUAUCUCUGUACAUAAACAACAGAGGAUUGAGCAUCA
# B3: chr8:143707665:143708109:-|CDS|ENSG00000255181|control|control|control (ssRNA)
# RNA: GGGAGUUCUACAGUCCGACGAUCGCGCGCCCAGCGCUGCGCCAAAGCCAUCGUCCGGCUGGACGAGCAGAACCGCGUGGACCUAGCGCAGAUCCACUGGCAGCGGGCGGAACUGGCCUCGCUCUACCACGGGCGCGAGGACGGCAACAGAGGAUUGAGCAUCA
# B4: chr4:65323451:65323552:-|3pUTR|ENSG00000145242|msi1|FALSE|unique (ssRNA)
# RNA: GGGAGUUCUACAGUCCGACGAUCAUCAAGAAAAAGUACAAUACAGGGUGUAUAUUUAUUUUUUGUGUUAUAAAGUUUACUUUUAGUUGCUCUUCUAGAGAUUAUUAGGUAAUAAAUGUGUAUAUACUGUAUAAUUUGCAAUAUCAACAGAGGAUUGAGCAUCA
# B5: chr10:72011604:72011705:+|3pUTR|ENSG00000122863|msi1|FALSE|unique (ssRNA)
# RNA: GGGAGUUCUACAGUCCGACGAUCCACCUGCCCGGAGACAGAGGGAGCAGCUGAGGCCUCUCUCCACUGGCCGCCAGCCUCCCUAGCACAAGGGGACCAUUCAGCAAUGAGUGUUUACUCAUGUUCUUUCUUGUUGAUGAGUUCCAACAGAGGAUUGAGCAUCA
# B6: chr6:111661451:111661552:-|3pUTR|ENSG00000010810|msi1|total|mutant (ssRNA)
# RNA: GGGAGUUCUACAGUCCGACGAUCCUUUGGAAAAUGCAUUGUAUCGAUGUUAUGUAAAAGGCCAAACCUCUGUUCAGUGUAAACCGUUACUCCAGUGCCAACAAUCCCCGUGCUUUCCUUUUUUAAAAAUGCAAAUCCUAUGUGCAACAGAGGAUUGAGCAUCA
# B7: chr5:91369659:91369760:-|3pUTR|ENSG00000113369|msi1|FALSE|bound_elsewhere (ssRNA)
# RNA: GGGAGUUCUACAGUCCGACGAUCUCAGCAUUUUCCAAGGUACCAAGUGUACUUAUUUUGUUGUUGUUGUUGUUGUUGUAUUUUAGAAGGAAUUCAGCUCUGAUGUUUUUAAAGAAAACCAGCAUCUCUGAUGUUGCAACAUACCAACAGAGGAUUGAGCAUCA
# B8: chr16:67098774:67098826:+|CDS_3pUTR|ENSG00000067955|msi1_unk|FALSE|overlapping (ssRNA)
# RNA: GGGAGUUCUACAGUCCGACGAUCAGACCCUAGUCCUGGUUCCAAUUUAGGUGGUGGUGAUGACCUCAAACUUCGUUAAUUAAUAGCACAGCAGAUGUGUGCUGCCCAUCUUUACAUACACAUUGCUUCUAGUUGGCAGAAAUACAACAGAGGAUUGAGCAUCA
# B9: chr7:139045324:139045425:-|3pUTR|ENSG00000105939|msi1|total|mutant (ssRNA)
# RNA: GGGAGUUCUACAGUCCGACGAUCAGUUCAAAACCGCUGUCAUGGCCCCAUGUGAUCUCUCCCUCCCCUACCCCUCUAUCAUUCCGUUUCUUCUGCGCAAGCCACUCUGGCUUCCUUUCAGUUUUGUGGUUCCCAUUUUCCGCUCAACAGAGGAUUGAGCAUCA
# B10: chr11:77702383:77702481:-|5pUTR_CDS|ENSG00000048649|msi1_unk|total|mutant (ssRNA)
# RNA: GGGAGUUCUACAGUCCGACGAUCAUUUUCCGAGGAACAGAAAGAAAGUGAAAAGAUGAAAAGUGAGGAGCAGCCUAUGGAUUCCGAAAACCGUUCUACAGCCAAUGUUCCCGAAGAGACUACUGUGAAAAAAGAAAAAGAAGACAACAGAGGAUUGAGCAUCA
# B11: chr5:40767470:40767586:-|CDS|ENSG00000132356|unk|FALSE|unique (ssRNA)
# RNA: GGGAGUUCUACAGUCCGACGAUCUUUAAGAAGAUAUGUGAUGGGAUCUUCUAUACCCCUCAAUAUUUAAAUCCUUCUGUGAUUAGCCUUUUGAAACAUAUGCUGCAGGUGGAUCCCAUGAAGAGGGCCACAAUCAAAGAUAUCCAACAGAGGAUUGAGCAUCA
# B12: ENSG00000120708:stop:overlap|stop_codon|ENSG00000120708|stop_codon|NA|stop_codon (ssRNA)
# RNA: GGGAGUUCUACAGUCCGACGAUCCCCAGAGGUCUGUGCGACUAGCCCCUGUCUAUCAAAAGUUAUUAGAGAGGAUGAAGCAUUAGCUUGAAGCACUACAGGAGGAAUGCACCACGGCAGCUCUCCGCCAAUUUCUCUCAGAUUCAACAGAGGAUUGAGCAUCA
# B13: ENSG00000092871:stop:overlap|stop_codon|ENSG00000092871|stop_codon|NA|stop_codon (ssRNA)
# RNA: GGGAGUUCUACAGUCCGACGAUCCAGGCUUGGAACCAAGCUGCAAGUCCUGUGGGGCUCACUUUGCAAACACGGCCAGGAAGUAGUGCUCAAGAUCACAUAGUUAUUAAAUGACAGAGCCGGGAUUCAAACCCAGGUCCUUGACAACAGAGGAUUGAGCAUCA
# B14: chr19:37127587:37127689:+|CDS|ENSG00000197050|unk|FALSE|unique (ssRNA)
# RNA: GGGAGUUCUACAGUCCGACGAUCUAUGCAUGUAAGGAAUGUGGGAAGGCCUUUACUCAAAGCUCACAACUUAUUUUACAUCAUAGAAUUCAUACUGGUGAAAAACCAUAUAAAUGUGAAGAAUGUGGGAAAGCCUUUAUUCGUCAACAGAGGAUUGAGCAUCA
# B15: chr3:57561443:57561544:+|3pUTR|ENSG00000174840|unk|total|mutant (ssRNA)
# RNA: GGGAGUUCUACAGUCCGACGAUCGAAAUUUAAAUAUGAAGCCAAACUUUUUAAAAUCCGAAACUACAAAUGGUUAUACUGAUCCGUGUCCCGCCCCGAGUGGUAACCAUGCUUUACUAAUUCAGUUAUGAAAUACAUUAUUUACAACAGAGGAUUGAGCAUCA
# B16: chr8:23844609:23844711:-|3pUTR|ENSG00000159167|msi1|FALSE|unique (ssRNA)
# RNA: GGGAGUUCUACAGUCCGACGAUCUUUAGGGGUGUUGACACACCAGUUUUGAGUGUACUGUGCCUGGUUUGAUUUUUUUAAAGUAGUUCCUAUUUUCUAUCCCCCUUAAAGAAAAUUGCAUGAAACUAGGCUUCUGUAAUCAAUCAACAGAGGAUUGAGCAUCA
# B17: chrX:93670929:93671783:-|three_prime_utr|ENSG00000186310|control|control|control (ssRNA)
# RNA: GGGAGUUCUACAGUCCGACGAUCUCAUACAGCCUUGAAAAAAGUAAAACCCUGACCUGUAACCUGAACACUAUUAUUCCUUAUAGUCAAGUUUUUGUGGUUUCUUGGUAGUCUAUAUUUUAAAAAUAGUCCUAAAAAGUGUCUCAACAGAGGAUUGAGCAUCA
# B18: chrX:103676501:103676735:-|CDS|ENSG00000123562|unk|FALSE|unique (ssRNA)
# RNA: GGGAGUUCUACAGUCCGACGAUCGGAGGUUAAAGUGAAGAUUCCUGAAGAAUUAAAACCAUGGCUUGUUGAGGACUGGGACUUAGUUACCAGGCAGAAGCAGCUGUUUCAACUCCCUGCCAAGAAAAAUGUAGAUGCAAUUCUCAACAGAGGAUUGAGCAUCA
# B19: chr19:8065921:8066260:-|CDS|ENSG00000142449|control|control|control (ssRNA)
# RNA: GGGAGUUCUACAGUCCGACGAUCCCUCUCACACCUGGGCCGGGCCGAGCGCAUCCUGGAGCUCCGGCCGGCCCUGGAGGGUCUAGAGGGCCGGAUCCGCUACGUCAUCGUCCGCGGAAACGAGCAAGGUUUCUUUCGCAUGCACAACAGAGGAUUGAGCAUCA
# B20: chr10:17315694:17315795:-|3pUTR|ENSG00000148488|unk|total|mutant (ssRNA)
# RNA: GGGAGUUCUACAGUCCGACGAUCCUUCUUCCUCCCUGUCCAUCCCACCCUCGUCCCCAGAAAAUUCCUAAUCUGUUUUUCUACCGACAUUUACAUUUUUACACUACCGACUGUUUACAUUUUUCCGAAUUUUAUAUAAAUGGACAACAGAGGAUUGAGCAUCA
# B21: ENSG00000198589:be:win_6651|CDS|ENSG00000198589|bound_else_gene|NA|bound_elsewhere_windowed (ssRNA)
# RNA: GGGAGUUCUACAGUCCGACGAUCUCUCAACACGAUAGCAGGACGGAGUUAUAAUGACUUAAAUCAGUAUCCAGUGUUUCCUUGGGUCAUCACUAAUUAUGAAUCAGAAGAACUGGAUCUUACCUUGCCCACCAACUUCAGAGACAACAGAGGAUUGAGCAUCA
# B22: chr10:128108355:128108456:-|CDS|ENSG00000148773|msi1|total|mutant (ssRNA)
# RNA: GGGAGUUCUACAGUCCGACGAUCAGUGGACACUCCAACAAGCACAAAGCAAUGGCCUAAGAGAAGUCUCAGGAAAGCAGAUGCCGAGGAAGAAUUCUCCGCACUCAGGAAACUAACACCAUCAGCAGGGAAAGCCAUGCUUACCAACAGAGGAUUGAGCAUCA
# Target: MSI1 full-length (mouse, UniProt Q61474 1-362)
# UniProt Q61474, sequence (Q61474 whole entry): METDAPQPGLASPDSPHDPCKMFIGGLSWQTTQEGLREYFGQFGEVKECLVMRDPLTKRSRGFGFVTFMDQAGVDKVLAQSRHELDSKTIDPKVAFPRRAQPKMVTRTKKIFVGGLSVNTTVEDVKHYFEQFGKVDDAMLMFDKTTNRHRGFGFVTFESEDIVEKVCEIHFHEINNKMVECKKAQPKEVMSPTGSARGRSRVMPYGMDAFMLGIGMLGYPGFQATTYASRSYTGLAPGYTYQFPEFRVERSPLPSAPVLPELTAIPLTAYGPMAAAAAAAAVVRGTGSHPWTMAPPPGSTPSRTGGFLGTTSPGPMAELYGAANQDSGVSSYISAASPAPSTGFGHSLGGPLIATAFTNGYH
# Assay: nsRBNS (natural sequence RNA bind-n-seq); RBNS binding buffer (assumed for nsRBNS): 25 mM Tris pH 7.5, 150 mM KCl, 3 mM MgCl2, 0.01% Triton X-100, 500 ug/ml BSA, 20 U/ml SUPERase-In, 4 C; UNK is unkempt and MSI1 is Musashi-1; names of the RNAs are library labels; protein concentration not given here; high values mean tight binding
row,Binder,binding signal
1,B1,0.874 enrichment R
2,B2,0.658 enrichment R
3,B3,0.334 enrichment R
4,B4,11.9 enrichment R
5,B5,0.384 enrichment R
6,B6,0.319 enrichment R
7,B7,0.425 enrichment R
8,B8,2.16 enrichment R
9,B9,0.75 enrichment R
10,B10,0.512 enrichment R
11,B11,0.506 enrichment R
12,B12,0.509 enrichment R
13,B13,0.318 enrichment R
14,B14,0.48 enrichment R
15,B15,1.8 enrichment R
16,B16,2.22 enrichment R
17,B17,9.45 enrichment R
18,B18,0.761 enrichment R
19,B19,0.243 enrichment R
20,B20,1.84 enrichment R
21,B21,0.267 enrichment R
22,B22,0.455 enrichment R
